{"source": "patent US20190167739A1", "about": "“COMPOSITION COMPRISING DUDDINGTONIA FLAGRANS” (INTERNATIONAL ANIMAL HEALTH PRODUCTS PTY LTD, priority 2016, published 2019)", "key": {"[1]": {"test": "Analysis of flagranone A in TGAI batches (HPLC with UV detection)"}, "[2]": {"test": "Calculated flagranone A intake by treated animals"}, "[3]": {"test": "Stability of flagranone A", "type": "physicochemical", "settings": "sealed ampoules in the dark at −80 C., but not −20 C."}}}
{"smiles": "CC(=O)OCC1=CC(=O)C2(C(/C=C(C)/C=C/C=C(\\C)CCC=C(C)C)OC(C)=O)OC2C1=O", "note": "(stereo not drawn) [flagranone A]", "values": [{"measurement": "Level of flagranone A present", "setting": "[1]", "value": "too low to be of toxicological concern"}, {"measurement": "Animal exposure (below level above which residue studies are required)", "setting": "[2]", "value": "< 4", "unit": "μg/kg BW/day"}, {"measurement": "Storage stability of pure material", "setting": "[3]", "value": "stabilised by storage"}]}
